{"source": "PubChem BioAssay AID686978", "about": "(National Center for Advancing Translational Sciences (NCATS), 2013)", "note": "The whole screen tested about 420,000 compounds, of which about 64,000 (15%) were called active. This list was built around the results that the source calls inconclusive (neither active nor inactive); the mix of calls is not that of the screen. Calls follow the shape of the dose curve; as a rule, active = well fitted inhibition curve with a large enough effect; inconclusive = small, poorly fitted or top-dose-only effect; inactive = flat fitted curve, though single readings scatter. No potency is given beside an inconclusive call; the fits are too rough. % is scaled to controls: 0 for no effect and ±100 for the full control effect; potency is read from the fitted curve at half-maximal effect; tags tell the direction and shape of the fitted curve.", "data": [{"experiment": "qHTS for Inhibitors of human tyrosyl-DNA phosphodiesterase 1 (TDP1): qHTS in cells in absence of CPT; also: nearly all actives have a fitted effect of over 55% in size", "details": "DT40 Tdp1-/- hTDP1 cells, no CPT, ATP luminescence, 48 h; activity change, negative = growth inhibition: at 46.2 µM (top of the series) unless noted", "how_it_was_run": "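Readout: luminescence from CellTiter-Glo after 30 min in the dark at RT. Cells: DT40 Tdp1-/- with stable hTDP1, 400/well. Exposure: compounds alone, ≥48 hr, 37 °C.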", "values": [{"smiles": "COc1cc2c(cc1OC)CN(C(=O)c1nn(Cc3ccccc3)c(=O)c3ccccc13)CC2", "Potency": "active: 16.4 µM"}, {"smiles": "COc1ccc(F)cc1S(=O)(=O)N1CCCN(S(=O)(=O)c2cc(F)ccc2OC)CC1", "Potency": "inconclusive [inhibitor, single point]"}, {"smiles": "O=S(=O)(c1ccc2ccccc2c1)N1CCN(c2ccc(O)cc2)CC1", "Potency": "active: 8.2 µM"}, {"smiles": "CN(C)/C=C1\\N=C(c2ccc3c(c2)OCO3)OC1=O", "activity change, negative = growth inhibition": "inconclusive: -31.3% [inhibitor]"}, {"smiles": "O=C(CCC(=O)OCC(=O)c1ccc(-c2ccccc2)cc1)Nc1cccc(Cl)c1", "Potency": "inactive"}, {"smiles": "O=C(OCC(=O)N1c2ccccc2Sc2ccccc21)c1cccnc1", "Potency": "inconclusive [inhibitor, single point]"}, {"smiles": "O=C(C1CCN(c2nnc(-n3cccc3)s2)CC1)N1CCN(Cc2ccc3c(c2)OCO3)CC1", "Potency": "active: 14.6 µM"}, {"smiles": "COc1ccc(C(C)=O)cc1CC1(C)C(=O)Nc2ccc(-c3cccc(C(F)(F)F)c3)cc21", "note": "(configuration not stated)", "Potency": "inconclusive [inhibitor, single point]"}, {"smiles": "Cc1ccc(OCC(=O)Nc2cccc(S(=O)(=O)N3CCCCC3)c2)c([N+](=O)[O-])n1", "Potency": "inconclusive [inhibitor, single point]"}, {"smiles": "Nc1cccc(-c2cn(-c3cc4cc(C#CC5(O)CCCCC5)ccc4oc3=O)nn2)c1", "Potency": "inconclusive [inhibitor, single point]"}, {"smiles": "O=C(Cn1nc(Cc2cccnc2)c2ccccc2c1=O)N1CCN(c2ccc(F)cc2)CC1", "Potency": "active: 23.1 µM"}, {"smiles": "S=c1cn[nH]c2ccccc12", "Potency": "inactive"}, {"smiles": "CSc1ccc(S(=O)(=O)Nc2ccc3c(c2)OCCO3)cc1", "Potency": "inconclusive [inhibitor, partial curve, poor fit]"}, {"smiles": "CC(OC(=O)CCc1ccccc1)C(=O)Nc1ncc(Cl)cc1Cl", "note": "(configuration not stated)", "Potency": "inactive"}, {"smiles": "O=C(O)CC/C(=N/NC(=O)c1cn(-c2ccccc2)nc1-c1ccccc1)C(=O)O", "Potency": "inconclusive [inhibitor, partial curve, poor fit]"}, {"smiles": "CCc1nn(CC(=O)N2CCCCCC2)c(=O)c2cc3ccccc3n12", "Potency": "inconclusive [inhibitor, single point]"}, {"smiles": "CCC(=O)N(C)CCc1cc2c(c(OC)c1/C=N/NC(=O)[C@H]1C[C@@H]1c1ccccc1)OCO2", "Potency": "inconclusive [inhibitor, single point]"}, {"smiles": "COc1ccccc1-c1ccc2c(c1)C(C)(Cc1cccc(F)c1)C(=O)N2", "note": "(configuration not stated)", "Potency": "inconclusive [inhibitor, single point]"}, {"smiles": "CCCSCCCNC(=O)C1CCCN(C(=O)c2cnn(-c3ccccc3)c2-n2cccc2)C1", "note": "(configuration not stated)", "Potency": "inconclusive [inhibitor, single point]"}, {"smiles": "COc1ccc(Nc2ncnc3onc(C)c23)cc1Cl", "Potency": "inconclusive [inhibitor, full curve, poor fit]"}, {"smiles": "COc1ccccc1Cc1c(-c2ccc(C)cc2)nc2c(C)cc(Br)cn12", "Potency": "active: 20.6 µM"}, {"smiles": "CC1=CC(C)(C)n2c(O)c(C3=NC(=S)NC3=O)c3cc(OC(=O)c4cccc5ccccc45)cc1c32", "Potency": "active: 23.1 µM"}, {"smiles": "O=C(c1ccc(N2CCCC2)c([N+](=O)[O-])c1)N1CCN(S(=O)(=O)c2ccccc2)CC1", "Potency": "inconclusive [inhibitor, single point]"}, {"smiles": "COc1cccc([C@@H]2Oc3ccc(OC)cc3C(=O)[C@H]2OC(=O)Nc2cc(OC)c(OC)c(OC)c2)c1", "Potency": "inconclusive [inhibitor, single point]"}, {"smiles": "COc1cc(C(=O)N(Cc2cc3ccc(C)cc3nc2N(C)C)C2CC2)cc(OC)c1OC", "Potency": "inconclusive [inhibitor, single point]"}, {"smiles": "O=C(c1ccc(F)c(F)c1)N1CCOc2ccc(CN3CCN(CCO)CC3)cc2C1", "Potency": "inactive"}, {"smiles": "COc1cc(C(N)=O)cc(Br)c1OCc1ccccc1", "Potency": "inconclusive [inhibitor, partial curve, poor fit]"}, {"smiles": "Cc1nonc1-c1csc(N)n1", "Potency": "inactive"}, {"smiles": "Clc1ccc(C2=Nn3c(nnc3-c3n[nH]c4c3CCC4)SC2)cc1", "Potency": "active: 2.91 µM"}, {"smiles": "O=C(C1=C[C@@H](c2csc3ccccc23)C[C@@H](OCc2ccc(CO)cc2)O1)N1CCN(Cc2ccccc2)CC1", "Potency": "inconclusive [inhibitor, single point]"}, {"smiles": "COc1cccc(-c2csc(N3CCN(Cc4ccccc4)CC3)n2)c1", "Potency": "inactive"}, {"smiles": "CCOC(=O)CN(C(=O)COc1nc(-c2ccccc2)cc(C)c1C#N)c1ccccc1", "Potency": "inconclusive [inhibitor, single point]"}, {"smiles": "Cc1ccc(C)c(N2CCN(CCCNc3ncnc4onc(-c5ccc(Cl)cc5)c34)CC2)c1", "Potency": "active: 16.4 µM"}, {"smiles": "CC(=O)c1cnc(-c2ccccc2)s1", "Potency": "inactive"}, {"smiles": "CCn1c(=N)c(C(=O)NCCCOC)cc2c(=O)n3cccc(C)c3nc21", "Potency": "inconclusive [inhibitor, single point]"}, {"smiles": "CC(C)(CNC(=O)c1cc([N+](=O)[O-])ccc1N1CCC(Cc2ccccc2)CC1)N1CCOCC1", "Potency": "inconclusive [inhibitor, single point]"}, {"smiles": "CCCCSc1nnc(-c2cc3c(C(F)(F)F)nn(C)c3s2)n1C", "Potency": "inconclusive [inhibitor, single point]"}, {"smiles": "CC(C)(C)c1ccc(/C=C/C(=O)NCCCN2CCOCC2)cc1", "Potency": "inconclusive [inhibitor, single point]"}, {"smiles": "O=[N+]([O-])c1cccc(Nc2c([N+](=O)[O-])ccc3nonc23)c1", "Potency": "inconclusive [inhibitor, partial curve]"}, {"smiles": "CS(=O)(=O)c1nc(-c2ccccc2)cc(-c2ccccc2)c1C#N", "Potency": "active: 2.91 µM"}, {"smiles": "COc1cccc(NC(=O)CN(C)C(=O)c2ccc(COc3ccccc3)cc2)c1", "Potency": "active: 16.4 µM"}, {"smiles": "COc1ccc(OC)c(CNC(=O)CCS(=O)(=O)c2ccc3c(c2)oc(=O)n3C)c1", "Potency": "inactive"}, {"smiles": "Cc1ccc(NC(=O)[C@H](CSCc2ccccc2)N2Cc3ccccc3C2=O)cc1", "Potency": "inconclusive [inhibitor, partial curve]"}, {"smiles": "Cc1onc(-c2ccccc2)c1C(=O)N/N=C/c1cc(Br)c(O)c(Br)c1", "Potency": "inconclusive [inhibitor, single point]"}, {"smiles": "CCCN(CC(=O)Nc1ccccc1OC)C(=O)CSc1nc(C)cc(C)n1", "Potency": "inconclusive [inhibitor, single point]"}, {"smiles": "CCCCC(=O)Nc1ccc2c(c1)nc(CCN1CCN(C)CC1)n2C", "Potency": "inconclusive [inhibitor, single point]"}, {"smiles": "Fc1ccc(NC(=S)N2CCOCC2)c(F)c1", "Potency": "inactive"}, {"smiles": "CNC(=O)c1ccsc1NC(=O)CS(=O)(=O)c1ccccc1", "Potency": "inactive"}, {"smiles": "Cc1ccc(C(=O)NCCn2c(N)c(C#N)c3nc4ccccc4nc32)cc1", "Potency": "inactive"}, {"smiles": "O=C(NCC1CCCO1)c1ccccc1S(=O)(=O)c1ccc([N+](=O)[O-])cc1", "note": "(configuration not stated)", "Potency": "inactive"}, {"smiles": "NS(=O)(=O)c1ccc(CCNC(=O)c2ccc([N+](=O)[O-])s2)cc1", "Potency": "inconclusive [inhibitor, single point]"}, {"smiles": "O=C(CSc1nnc(CCCN2C(=O)c3cccc4cccc(c34)C2=O)n1-c1ccccc1)N1CCN(CCO)CC1", "Potency": "inconclusive [inhibitor, single point]"}, {"smiles": "COc1ccccc1-c1cc(-c2cc(Cl)ccc2O)n[nH]1", "Potency": "inactive"}, {"smiles": "CC(/C=N/NC(=O)c1ccccc1F)=C\\c1ccccc1", "Potency": "inconclusive [inhibitor, single point]"}, {"smiles": "O=C1C=CC(=O)N1N(c1ccccc1)c1ccccc1", "Potency": "active: 20.6 µM"}, {"smiles": "Cc1cc2oc(=O)cc(CN3CCN(S(=O)(=O)c4cccs4)CC3)c2cc1C(C)C", "Potency": "active: 20.6 µM"}, {"smiles": "Cc1cc(C)c(NC(=O)CN2C(=O)c3cccnc3Oc3ccc(Cl)cc32)c(C)c1", "Potency": "inconclusive [inhibitor, single point]"}, {"smiles": "COc1cccc(CNc2ccc(S(=O)(=O)N3CCCC3)cn2)c1", "Potency": "inconclusive [inhibitor, single point]"}, {"smiles": "CC1(C)Cc2ccccc2-c2nnc(-c3cccc(O)c3)n21", "Potency": "inconclusive [inhibitor, full curve, poor fit]"}, {"smiles": "CCOc1ccc(NC(=O)CN(C)C(=O)c2cc(C)nc3ccccc23)cc1OCC", "Potency": "inconclusive [inhibitor, single point]"}, {"smiles": "Cc1cccc(NC(=O)NNC(=O)c2c(Cl)c(C)nn2C)c1", "Potency": "inactive"}, {"smiles": "Cc1cccc(NS(=O)(=O)c2cccc(C(=O)NCC(c3ccco3)N(C)C)c2)c1", "note": "(configuration not stated)", "Potency": "inconclusive [inhibitor, single point]"}, {"smiles": "COc1ccc(OC)c(/C=N/NC(=O)c2cc3c(OC)cccc3[nH]2)c1", "Potency": "inconclusive [inhibitor, single point]"}, {"smiles": "COc1ccc(C2=NN(C(=O)CSc3nc(=O)n4ccc(C)cc4n3)C(c3ccc(C)cc3)C2)cc1", "note": "(configuration not stated)", "Potency": "inconclusive [inhibitor, single point]"}, {"smiles": "COc1ccc(C(=O)NCCc2cc3ccc(C)c(C)c3[nH]c2=O)cc1OC", "Potency": "inconclusive [inhibitor, single point]"}, {"smiles": "COC/C=C/C1=CC2=CC(=O)C(C)(OC(=O)c3cnc4ccccc4n3)C(=O)C2=CN1Cc1ccccc1", "note": "(configuration not stated)", "Potency": "active: 16.4 µM"}, {"smiles": "C[C@@H]1CN([C@H](C)CO)C(=O)c2cc(NC(=O)C3CCCCC3)ccc2O[C@@H]1CN(C)Cc1ccc(C(F)(F)F)cc1", "Potency": "inconclusive [inhibitor, single point]"}]}]}
